Measured values reported in PubChem BioAssay AID1814 (Broad Institute, 2009).
In all, about 300,000 compounds went through this assay and about 22,000 (7.3%) were called active. The inconclusive results got no clear call from the source; some entries with a clear call stand among them for comparison. Rule as the data show it: active = activity score below about -60%; inconclusive = mostly about -28% to -61%; inactive = positive scores.

Assay: Activators via SNCA 5'UTR binding, MLPCN (AID 1814)
Conditions: alpha-synuclein 5'UTR reporter, activators screen; stronger effect = lower value; tested at 7.5 µM

Row | SMILES | activity score
1 | COc1ccc(Cc2nc(-c3ccc(Br)o3)no2)cc1OC | inconclusive: -61.4%
2 | O=C1CCNc2cc3ccccc3cc21 | inactive: 77.7%
3 | CCCCC(=O)Nc1cccc(-c2nnc(-c3ccccc3)o2)c1 | inconclusive: -54.9%
4 | Fc1ccc(C2=CC(c3cccs3)n3nnnc3N2)cc1 (stereo not drawn) | inconclusive: -30%
5 | CC(C)C(=O)Nc1ccc(N2CCCC2)c(Cl)c1 | inconclusive: -57.4%
6 | O=C(Nc1ccc2c(c1)OCO2)C1CC(c2ccccc2Cl)=NO1 (stereo not drawn) | inconclusive: -58%
7 | O=c1c2ccccc2nnn1-c1ccc(Br)cc1 | active: -169%
8 | c1ccc(-c2noc(C3CCC3)n2)nc1 | inconclusive: -53.9%
9 | O=C(/C=C/c1ccco1)Nc1ccc(-c2nc3ccccc3[nH]2)cc1 | inactive: 89.3%
10 | CCOc1ccc(N(CC(=O)Nc2ccccc2OCC)S(=O)(=O)c2c(C)noc2C)cc1 | inactive: 95%
11 | CCN(CC)S(=O)(=O)c1cccc(-n2c(O)c(C=Nc3ccccc3C(=O)O)c3ccccc3c2=O)c1 | inconclusive: -57.6%
12 | CCc1ccc(C(=O)c2oc3nc(C)cc(C)c3c2N)cc1 | inconclusive: -59.1%
13 | CN1CCN(C2=Cc3ccccc3Sc3cc(F)c(Cl)cc32)CC1 | inconclusive: -49.7%
14 | O=C(COc1ccccc1C(=O)Nc1ccccc1)NCCc1ccccc1 | inconclusive: -28.1%
15 | CSc1nc2c(ccc3ccccc32)o1 | inconclusive: -44.2%
16 | COCCNC(=O)c1cc2c3ccccc3n(C)c2s1 | inconclusive: -47.3%
17 | CC(=O)c1cccc(NC(=O)c2ccc3c(c2)CCN3S(=O)(=O)c2ccccc2)c1 | inconclusive: -54.4%
18 | CN1CCN(c2ccc(NC(=O)N3CCc4ccccc43)cc2)CC1 | inactive: 69.6%
19 | c1ccc(-c2nnn(C34CC5CC(CC(C5)C3)C4)n2)cc1 | inconclusive: -58.8%
20 | CCn1ncc(C2=NOC(C(=O)Nc3cccnc3)C2)c1C (stereo not drawn) | inconclusive: -26.4%
21 | CC1(CC(=O)Nc2ccccc2)NC(=S)N(c2ccccc2)N1 (stereo not drawn) | inconclusive: -29.5%
22 | Cc1ccccc1NC(=O)c1c(F)c(F)c(F)c(F)c1F | inconclusive: -45.1%
23 | O=C(CCCN1C(=O)/C(=C/c2ccccc2)SC1=S)Nc1ccc(O)cc1 | inconclusive: -32.2%
24 | O=C(/C(C=Nc1cc2c(oc1=O)CCCC2=O)=C(\O)c1ccccc1)c1ccccc1 | inconclusive: -52.6%

Row | SMILES | activity score
25 | O=C(Cc1ccccc1)c1c[nH]c(C(=O)C(Cl)(Cl)Cl)c1 | inconclusive: -58.8%
26 | Cc1ccc(-n2[nH]c(=O)c(-c3ccccn3)c2C)cc1 | inactive: 97.4%
27 | O=C(/C=C/c1ccc(S(=O)(=O)NCc2ccco2)cc1)NCc1cccc(Cl)c1 | inconclusive: -60%
28 | Cc1ccc(C(C)C)c(OCC(=O)Nc2ccc3c(c2)nc(CCN2CCCCC2)n3C)c1 | inactive: 110%
29 | O=C(CN1C(=O)c2cccc3cccc(c23)C1=O)N1CCN(Cc2ccc3c(c2)OCO3)CC1 | inconclusive: -50.3%
30 | CCc1ccc(NC(=O)CSCCO)cc1 | inconclusive: -41.7%
31 | COC(=O)c1c(NC(=O)c2ccc([N+](=O)[O-])o2)sc2c1CCN(C(C)C)C2 | inactive: 105%
32 | Cc1ccc(Cn2c(O)c(N=NC(=S)Nc3ccccc3F)c3cc(S(=O)(=O)N4CCOCC4)ccc32)cc1 | inactive: 66.2%
33 | Cc1ccc(C(=O)N/N=C/C=C/c2ccccc2)o1 | inconclusive: -58%
34 | Cc1ccc(C)c(NS(=O)(=O)c2ccc(-c3cnc(C4CC4)o3)cc2)c1 | inactive: 93.2%
35 | COc1cc(Cl)ccc1OCc1cc(C(=O)N2CC[C@@H]3CCCC[C@H]3C2)no1 | active: -69%
36 | Cn1c(N2CCOCC2)c(/C=N/OC(=O)c2ccc(F)cc2)c2ccccc21 | inactive: 72.7%
37 | O=C(Nc1cccnc1)c1c(O)c2cccc3c2n(c1=O)CC3 | inconclusive: -41.5%
38 | CNS(=O)(=O)c1ccc(N2CCCC2=O)c([N+](=O)[O-])c1 | inconclusive: -43.3%
39 | CC(=O)c1c(C)[nH]c(C(=O)NC2=NCCS2)c1C | inconclusive: -55.6%
40 | O=C(Nc1cccc(-c2csc(Nc3ccccc3)n2)c1)c1ccccc1 | active: -142%
41 | CCOc1ccc(OCc2cccc(C(=O)Nc3ccc(CN4CCCCC4)cc3)c2)cc1 | inactive: 61.3%
42 | CCOC(=O)c1ccc2ncc(C(=O)OCC)c(NCc3ccco3)c2c1 | inconclusive: -59.8%
43 | CCN(CC)CCn1c(NC(=O)c2ccc(Cl)cc2)nc2ccccc21 | inconclusive: -56.1%
44 | Clc1cccc(-c2nc(-c3ccccn3)no2)c1 | inactive: 93.3%
45 | C(=N\Nc1nc2ccccc2[nH]1)/C1CCCCC1 | inconclusive: -37.5%
46 | COc1ccc(-c2c(-c3cc(OC)c(OC)c(OC)c3)noc2C)cn1 | inactive: 76.5%
47 | Cc1cc(NC(=O)Nc2ccc(Cl)c(Cl)c2)no1 | inconclusive: -42.7%
48 | COc1ccc(-c2nc(C#N)c(NC(C)C)o2)cc1 | active: -68.4%

Row | SMILES | activity score
49 | CC(C)=CCc1c(O)cc2oc3c(CC=C(C)C)c(O)c(O)c(CC=C(C)C)c3c(=O)c2c1O | inactive: 62.2%
50 | Nc1nc2ccccc2n1C(=O)c1ccco1 | inconclusive: -42.2%
51 | CN(C)CC(O)COc1ccc(C(C)(C)c2ccc(OCC(O)CN(C)C)cc2)cc1 (stereo not drawn) | inconclusive: -40.5%
52 | Cc1cccc(NC(=S)Nc2ccccn2)c1C | inconclusive: -60.5%
53 | Cc1nn2c(nc(N3CCCCC3)c3ccccc32)c1C=O | inactive: 55.3%
54 | Cc1ccc(S(=O)(=O)Nc2cccc3cccnc23)cc1 | inactive: 63.4%
55 | O=C(Nc1ccc(C(=O)N2CCCCC2)cc1)c1cccs1 | inconclusive: -57.8%
56 | O=c1c2ccccc2oc2ccc(-c3ccc4[nH]ccc4c3)cc12 | active: -154%
57 | Cn1nc(-c2ccc(Cl)cc2)nc2c(=O)n(C)c(=O)nc1-2 | inactive: 110%
58 | CCCCOc1ccc(-c2nnn(CC(=O)NCCc3c[nH]c4ccccc34)n2)cc1 | inconclusive: -58.4%
59 | Cc1occc1C(=O)Nc1sccc1C(N)=O | inconclusive: -46.4%
60 | COc1cccc(N2C(C(C)=O)=NN(c3ccccc3)C2c2ccc(N3CCOCC3)cc2)c1 (stereo not drawn) | active: -82.1%
61 | CCOC(=O)c1cc(C)n(-c2ccccc2)c1C | inconclusive: -48.6%
62 | C=CCNS(=O)(=O)c1nc(C)c(Cl)c(C)c1C#N | active: -110%
63 | O=C(O)c1cccc(NC(=O)c2ccc3c(c2)C(=O)N(C2CCCCC2)C3=O)c1 | inconclusive: -35.8%
64 | Cc1cc(NC(=O)/C=C/c2ccco2)ccc1NC(=O)c1ccccc1 | inconclusive: -53.3%
65 | CCOC(=O)c1cc(-c2ccc(C)cc2)nc2nc(SC)[nH]c(=O)c12 | inactive: 49.3%
66 | C#CCNC(=O)C1=C[C@@H](c2ccc(Br)cc2)C[C@@H](OCc2ccc(CO)cc2)O1 | inconclusive: -60.2%
67 | Cc1cc(NC(=O)CC2CCCC2)n(-c2nc3ccccc3[nH]2)n1 | inconclusive: -33.6%
68 | CC1CCCC(C)N1CCNC(=O)CCc1nnc2n(Cc3ccccc3)c(=O)c3ccccc3n12 (stereo not drawn) | inconclusive: -39%
69 | Cc1c2ccccc2nc2c(F)c(NCCO)c(F)c(F)c12 | inconclusive: -35.3%
70 | COc1cccc(/C=N/Nc2ccc(C(=O)O)cc2)c1O | inactive: 113%
71 | CC(C)c1ccc(N(CC(=O)NCc2ccc(F)cc2)C(=O)c2csnn2)cc1 | inconclusive: -58.8%
72 | COc1cc(CNC(C)c2ccccc2)cc(Br)c1OCc1ccc(F)cc1 (stereo not drawn) | inactive: 58.7%

Row | SMILES | activity score
73 | O=C(N/N=C/c1cc2c3c(c1O)CCCN3CCC2)c1ccccc1O | inactive: 104%
74 | Cn1ccnc1SCC(=O)c1ccc(Br)cc1 | inconclusive: -41.4%
75 | CCOC(=O)Cc1csc(NC(=O)Nc2cccc(OC)c2)n1 | inconclusive: -43.5%
76 | Oc1ccc(/C=N/NC(=S)N/N=C/c2ccc(O)cc2)cc1 | inconclusive: -59.8%
77 | CCOC(=O)C1CCN(C(=S)Nc2ccc(CC)cc2)CC1 | inconclusive: -58.2%
78 | Cc1nnc(SCC(=O)Nc2ccc3c(c2)OCCO3)s1 | inconclusive: -13.8%
79 | CCOC(=O)c1csc(-c2sccc2Br)n1 | inconclusive: -60.2%
80 | Cc1cc(C)nc(SCc2ccc(C(=O)N/N=C/c3cccc(O)c3O)cc2)n1 | inactive: 70.1%
81 | Cc1ccc(NC(=S)c2ccccc2)cc1 | active: -152%
82 | COc1ccc(Oc2ccc(/C=C/C(=O)c3cccc(OC)c3)cc2[N+](=O)[O-])cc1 | inconclusive: -49.2%
83 | COc1ccccc1N1CCN(c2ccc(-c3ccccc3)nn2)CC1 | inactive: 79%
84 | COc1ccc(C2=NCC(CSc3nnnn3C)S2)cc1 (stereo not drawn) | inconclusive: -50.4%
85 | COc1ccc(-c2nnc(SCC(=O)N3CCCCC3)o2)c(OC)c1 | inconclusive: -45.2%
86 | Cc1ccc2nc(CSc3nc(C)ccc3C#N)[nH]c2c1 | inactive: 79.3%
87 | COc1cc(/C=C/c2ccc3cccc(O)c3n2)cc(Cl)c1OC | active: -88.3%
88 | COC(=O)c1cc(CSC(=N)N)ccc1OCCC(C)C | inconclusive: -45.3%
89 | O=C1Nc2ccccc2/C1=C/c1cnc(-c2ccccc2)[nH]1 | active: -78.4%
90 | CCOC(=O)/C(=C\c1cccnc1)C(=O)c1cc(C(C)=O)c(Nc2ccccc2)s1 | inactive: 82.9%
91 | COc1cccc2cc(-c3nc4ccccc4o3)c(=O)oc12 | active: -169%
92 | NC(=O)c1sc2nc3c(c(-c4ccc(Cl)cc4)c2c1N)CCCC3 | inactive: 66.4%
93 | CC[C@]1(O)CC2CN(CCc3c([nH]c4ccccc34)[C@@](C(=O)OC)(c3cc4c(cc3OC)N(C=O)[C@H]3[C@@](O)(C(=O)OC)[C@H](OC(C)=O)[C@]5(CC)C=CCN6CC[C@]43[C@@H]65)C2)C1 (stereo partly drawn) | inactive: 102%
